Laboratory results reported in PubChem BioAssay AID1460 (National Center for Advancing Translational Sciences (NCATS), 2008).
Among all 270,000 compounds or so, about 5,800 (2.1%) were called active. The shares of active, inactive and inconclusive entries below differ from those in the screen. Calls follow the shape of the dose curve; as a rule, active = well fitted inhibition curve with a large enough effect; inconclusive = small, poorly fitted or top-dose-only effect; inactive = flat fitted curve, though single readings scatter. A potency beside an inconclusive call is a rough fit, not a confirmed value.

Biological target: Microtubule-associated protein tau (Homo sapiens) (UniProt P10636)
Chain of UniProt P10636 (P10636 whole entry, looked up): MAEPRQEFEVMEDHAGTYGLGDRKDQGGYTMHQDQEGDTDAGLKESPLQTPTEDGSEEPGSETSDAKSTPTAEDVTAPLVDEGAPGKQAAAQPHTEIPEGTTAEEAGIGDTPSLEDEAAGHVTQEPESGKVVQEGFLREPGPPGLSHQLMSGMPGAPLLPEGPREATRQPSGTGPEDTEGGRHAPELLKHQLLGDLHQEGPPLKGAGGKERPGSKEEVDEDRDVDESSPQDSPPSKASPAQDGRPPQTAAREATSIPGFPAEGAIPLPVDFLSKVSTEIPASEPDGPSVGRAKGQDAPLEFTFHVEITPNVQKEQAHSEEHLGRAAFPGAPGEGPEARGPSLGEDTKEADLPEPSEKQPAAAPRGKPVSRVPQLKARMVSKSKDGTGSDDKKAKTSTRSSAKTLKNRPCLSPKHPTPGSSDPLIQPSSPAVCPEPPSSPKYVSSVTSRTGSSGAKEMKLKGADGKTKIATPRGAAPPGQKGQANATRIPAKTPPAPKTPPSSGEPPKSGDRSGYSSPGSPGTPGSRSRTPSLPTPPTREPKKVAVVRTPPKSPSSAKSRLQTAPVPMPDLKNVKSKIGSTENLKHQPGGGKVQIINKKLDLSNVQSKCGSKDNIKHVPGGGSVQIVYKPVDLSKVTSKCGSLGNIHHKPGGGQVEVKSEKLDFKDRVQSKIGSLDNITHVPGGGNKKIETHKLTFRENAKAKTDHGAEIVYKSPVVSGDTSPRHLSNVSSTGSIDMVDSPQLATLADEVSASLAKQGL
Assay: qHTS for Inhibitors of Tau Fibril Formation, Thioflavin T Binding; also: nearly all actives have a fitted effect of over 55% in size
Conditions: recombinant tau K18 P301L, heparin-induced fibrillization, ThT fluorescence; series mostly up to 57.4 µM
Procedure, shortened: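 ThT emission at 510 nm, taken 1 hr after adding 30 uM dye, quantifies aggregates formed when 20 uM heparin acts on human tau K18 P301L for 6 hr at 37 C.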
% is scaled to controls: 0 for no effect and ±100 for the full control effect; potency is read from the fitted curve at half-maximal effect; tags tell the direction and shape of the fitted curve.

SMILES | Potency | activity, negative = inhibition
Cc1ccc(N=Cc2c(O)n(-c3ccc4c(c3)OCO4)c(=O)c3ccccc23)cc1 | inconclusive: 22.4 µM [inhibitor, single point] | –
COC(=O)C1CCN(c2csc3ccc(C)cc3c2=O)CC1 | inconclusive: 14.1 µM [inhibitor, partial curve] | –
COc1ccc2c(c1)C1CC(C)(NC(=O)C1C(=O)c1ccccc1)O2 (stereo not drawn) | inconclusive: 31.6 µM [inhibitor, single point] | –
COc1cccc(/C=C(/CC(=O)Nc2ccc(N3CCOCC3)cc2)c2nc3ccccc3s2)c1 | inconclusive: 5.01 µM [inhibitor, partial curve] | –
CC1(OC(=O)C2CCCC2)C(=O)C=C2C=C(c3ccsc3)N(C(CO)CO)C=C2C1=O (stereo not drawn) | inconclusive: 35.5 µM [inhibitor, single point] | inactive: 0.902% [at 11.5 µM]
COc1cc(CNc2ccc(C)c(C)c2)cc(OC)c1OC | inconclusive: 6.31 µM [inhibitor, partial curve] | –
O=C(COC(=O)c1cc2ccccc2cc1O)NC(=O)NCc1ccco1 | inconclusive: 15.8 µM [inhibitor, partial curve] | –
CN(Cc1ccc(Cl)cc1)C(=O)CCl | inactive | –
O=C(N/N=C/C(Br)=C\c1ccccc1)c1ccco1 | inconclusive: 0.251 µM [inhibitor, partial curve] | –
CCCCNC(=O)CSc1nc2ccccc2nc1Cc1ccccc1 | inactive | –
O=C(CNc1ccc2c(c1)OCO2)N/N=C\c1cn(Cc2ccccc2)c2ccccc12 | inconclusive: 7.94 µM [inhibitor, partial curve] | –
CC1(C)Cc2ccccc2C(NNC(=O)c2ccccc2)=N1 | inactive | –
Cc1ccc2c(c1)C(=O)C(=O)N2CCCOc1ccccc1C | inactive | –
CCOc1ccc(N=Nc2c(=O)[nH]n3c(=O)cc(C)[nH]c23)cc1 | active: 3.55 µM | –
Cc1nc2ccc(NC(=S)N3CCOCC3)cc2nc1C | inactive | –
CC(NC(=O)C1CCN(C(=O)N2CCOc3ccccc32)CC1)c1ccccc1 (stereo not drawn) | inconclusive: 39.8 µM [inhibitor, single point] | –
COc1cc(OC)c(NC(=O)CSc2nc3ccncc3[nH]2)cc1Cl | inactive | –
Cc1nn(-c2ccccc2)c(C)c1/C=N/NC(=O)c1cc(-c2cccc3ccccc23)n[nH]1 | inconclusive: 2.51 µM [inhibitor, full curve] | –
O=C(CC1Nc2ccccc2NC1=O)c1ccccc1 (stereo not drawn) | inconclusive: 12.6 µM [inhibitor, partial curve] | –
COC(=O)C1CC(O)CN1C(=O)NC1CCCCC1 (stereo not drawn) | inactive | –
Cc1cc(C)cc(OCC(=O)NNC(=O)c2cc3ccccc3o2)c1 | inconclusive: 22.4 µM [inhibitor, partial curve] | –
O=C(Nc1ccccc1)c1ccc(NCCc2ccccc2)c([N+](=O)[O-])c1 | inactive | –
Cc1ccc(-n2c(Cc3cccn3C)nnc2SCC(=O)Nc2nnc(C)s2)cc1 | inactive | –

SMILES | Potency | activity, negative = inhibition
CC(C)CC(NC(=O)C1CCC(C)CC1)C(=O)OCC(=O)c1ccc(Cl)cc1 (stereo not drawn) | inactive | –
CC(=O)c1ccc(Nc2ccc(-c3ccccc3F)nn2)cc1 | inconclusive: 15.8 µM [inhibitor, partial curve] | –
O=S1(=O)CC=C(CSC(=S)NC2CCS(=O)(=O)C2)C1 (stereo not drawn) | inconclusive: 11.2 µM [inhibitor, partial curve] | –
COc1ccc(-c2cc(C(=O)Nc3cc(OC)cc(C(=O)Nc4cccc(C(F)(F)F)c4)c3)[nH]n2)cc1 | inactive | –
Cc1ccc(C(=O)c2cn(CC(=O)Nc3ccc4c(c3)OCCO4)c3nc(C)ccc3c2=O)cc1 | inconclusive: 22.4 µM [inhibitor, single point] | –
COc1ccc(OC)c(NC(=O)c2ccc(CSc3ncccn3)cc2)c1 | inconclusive: 28.2 µM [inhibitor, partial curve, poor fit] | –
CCOc1ccc(Nc2c(S(=O)(=O)c3ccccc3)cnc3ccc(CC)cc23)cc1 | inconclusive: 10 µM [inhibitor, partial curve, poor fit] | –
O=C1C2C3C=CC(CO)(O3)C2C(=O)N1c1ccccc1-c1ccccc1 (stereo not drawn) | inconclusive: 12.6 µM [inhibitor, partial curve] | –
COc1cccc(N2CCN(C(=O)Cn3ncc4c3-c3ccccc3OC4)CC2)c1 | inconclusive: 44.7 µM [inhibitor, single point] | –
CCOC(=O)N1CCC(Nc2nc3ccccc3nc2NS(=O)(=O)c2ccc(Cl)cc2)CC1 | inconclusive: 15.8 µM [inhibitor, partial curve] | –
Cc1cc(Nc2nc3ccccc3nc2Cl)n(-c2ccccc2)n1 | inconclusive: 15.8 µM [inhibitor, partial curve, poor fit] | –
CCC(C)NC(=O)C1CCC(=O)N(c2cc(OC)c(OC)c(OC)c2)C1c1ccc(OC)cc1 (stereo not drawn) | inactive | –
O=C(Oc1cccc(N2C(=O)CCC2=O)c1)C1CC(=O)N(c2ccc(F)cc2)C1 (stereo not drawn) | inconclusive: 28.2 µM [inhibitor, single point] | –
CC1(C)CNc2cc(N)ccc2S1 | active: 15.8 µM | –
Cc1ccc(N2CC(NC(=O)C3CCCC3)CC2=O)cc1 (stereo not drawn) | inactive | –
Cc1cccc(C)c1NC(=S)NCCc1ccc(O)c(O)c1 | inconclusive: 15.8 µM [inhibitor, partial curve] | –
CCCN1CCC(=NNc2ccc(S(=O)(=O)N(CC)CC)cc2[N+](=O)[O-])CC1 | inconclusive: 20 µM [inhibitor, single point] | –
CCC(C)NS(=O)(=O)c1ccc(S(=O)(=O)N(CC(=O)Nc2ccccc2)CC2CCCO2)cc1 (stereo not drawn) | inactive | –
COc1ncccc1-c1nnn(-c2ccc(Cl)c(Cl)c2)n1 | inconclusive: 3.98 µM [inhibitor, single point] | –
O=C(Nc1ccc(Cl)cc1)Nc1cccc2nsnc12 | inconclusive: 2 µM [inhibitor, full curve, poor fit] | –
Cc1cc(C)c(S(=O)(=O)N2C=CC(C(F)(F)F)=NCC2)c(C)c1 | inconclusive: 39.8 µM [inhibitor, single point] | –
Cc1ccc(OCC(O)CN2CCN(c3ccccn3)CC2)c(C)c1 (stereo not drawn) | inconclusive: 7.08 µM [inhibitor, partial curve] | –
CN(NC1OC(=O)c2ccccc21)c1ccc(C(F)(F)F)cc1[N+](=O)[O-] (stereo not drawn) | inconclusive: 7.94 µM [inhibitor, partial curve] | –

SMILES | Potency | activity, negative = inhibition
CC(=O)c1sc2nsc(SCCN3CCCC3)c2c1N | active: 10 µM | –
CCN(CC)S(=O)(=O)c1ccc(NC2c3ccccc3C(=O)N2CCN2CCOCC2)cc1 (stereo not drawn) | inactive | –
COC(=O)[C@H](Cc1ccccc1)NC(=O)C/C=C\[C@@H](C)[C@@H](CO)OC | – | inactive: -9.22% [at 11.5 µM]
N#C/C(=C\c1ccc(O)c(O)c1)C(=O)NCCc1ccccc1 | inconclusive: 10 µM [inhibitor, partial curve] | –
COc1ccc(C(=O)c2ccc(N(C)C)cc2)c2ccccc12 | inconclusive: 39.8 µM [inhibitor, single point] | –
Cc1ccc(S(=O)(=O)NCCOc2nc(N(C)C)nc(N(C)C)n2)cc1 | inactive | –
NC(=O)CC(NC(=O)Cc1ccc(Br)cc1)c1ccc(NCc2cc(F)ccc2F)c([N+](=O)[O-])c1 (stereo not drawn) | inconclusive: 3.16 µM [inhibitor, single point] | –
Fc1cccc2sc(Nc3nnc(-c4ccccc4)o3)nc12 | inconclusive: 12.6 µM [inhibitor, partial curve] | –
Cc1ccc(-n2nc3ccc(NC(=O)c4ccco4)cc3n2)cc1 | inconclusive: 1.58 µM [inhibitor, full curve] | –
O=C(NCc1nc2ccccc2[nH]1)C1=C[C@@H](c2csc3ccccc23)C[C@@H](OCCCCO)O1 | inconclusive: 44.7 µM [inhibitor, single point] | –
N#CC1(C#N)CC(C=O)=C(N)C1(C#N)CC(=O)C12CC3CC(CC(C3)C1)C2 (stereo not drawn) | inconclusive: 35.5 µM [inhibitor, single point] | –
COc1ccc2c(c1)c(=O)c(C(=O)c1ccc(C)cc1)cn2CC(=O)Nc1ccc(F)cc1 | inconclusive: 17.8 µM [inhibitor, partial curve] | –
Cc1ccc(OC(F)F)c(NC(=O)Nc2cccc(C(F)(F)F)c2)c1 | inconclusive: 28.2 µM [inhibitor, single point] | –
CCC1=C2CC[C@H]3C(=O)N(c4ccccc4)C(=O)[C@H]3[C@H]2[C@@]2(C)C(=O)N(Cc3ccccc3)C(=O)N2C1=O | inactive | –
COc1nnc(-c2ccc(N3CCOCC3)c(NC(=O)c3ccccc3)c2)c2ccccc12 | inconclusive: 31.6 µM [inhibitor, partial curve] | –
Cc1n[nH]c(=O)nc1N/N=C/c1ccco1 | inconclusive: 22.4 µM [inhibitor, partial curve] | –
c1cc2c3c(cccc3c1)NC1(CCCCCC1)N2 | inconclusive: 3.16 µM [inhibitor, full curve] | –
COCc1[nH]nc2c1C(c1c(F)cccc1Cl)C(C#N)=C(N)O2 (stereo not drawn) | inactive | –
O=C(O)Cc1cccc(OCCCN(Cc2cccc(C(F)(F)F)c2Cl)CC(c2ccccc2)c2ccccc2)c1 | inconclusive: 12.6 µM [inhibitor, partial curve] | –
C/C(=N\NC(=O)c1ccccc1)c1ccc(NC(=O)c2cccs2)cc1 | inconclusive: 1.78 µM [inhibitor, full curve] | –
COc1cc([N+](=O)[O-])ccc1NC(=O)N1CCC2(CC1)Nc1cc(F)ccc1-n1cccc12 | inconclusive: 7.94 µM [inhibitor, full curve, poor fit] | –
